# Measurements: PubChem BioAssay AID1460 (National Center for Advancing Translational Sciences (NCATS), 2008)
# Values joined by “and” are separate entries in the source; they are usually repeats but may differ in a detail not shown here. Equal values may be shown once. Hit rate of the full screen: of about 270,000 compounds, about 5,800 (2.1%) were called active. Inconclusive results, whose numbers are uncertain, are shown with a selection of clear calls. Calls come from the whole dose curve; as a rule, active = well fitted inhibition curve with a large enough effect; inconclusive = small, poorly fitted or top-dose-only effect; inactive = flat fitted curve, though single readings scatter. Potencies beside an inconclusive call are fits to weak or partial responses and may not hold up.
# Biological target: Microtubule-associated protein tau (Homo sapiens) (UniProt P10636)
# Assay: qHTS for Inhibitors of Tau Fibril Formation, Thioflavin T Binding; note: nearly all actives have a fitted effect of over 55% in size
# Settings: recombinant tau K18 P301L (four-repeat tau fragment), heparin-induced fibrillization, ThT fluorescence; series mostly up to 57.4 µM; activity, negative = inhibition: at the top concentration
# Summary of the method: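 Tau K18 P301L fragment (15 uM unlabeled plus 0.24 uM Alexa 594-labeled) in 100 mM sodium acetate pH 7 with compound, fibrillization induced by 20 uM heparin for 6 hr at 37 C. Thioflavin T (30 uM) added, fluorescence read after 1 hr (ex 450, em 510 nm).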
# % is set by controls: 0 for no effect and ±100 for the full control effect; potency is the fitted concentration of half-maximal effect; tags give direction and shape of the fitted curve.
# UniProt P10636, sequence (P10636 whole entry, looked up): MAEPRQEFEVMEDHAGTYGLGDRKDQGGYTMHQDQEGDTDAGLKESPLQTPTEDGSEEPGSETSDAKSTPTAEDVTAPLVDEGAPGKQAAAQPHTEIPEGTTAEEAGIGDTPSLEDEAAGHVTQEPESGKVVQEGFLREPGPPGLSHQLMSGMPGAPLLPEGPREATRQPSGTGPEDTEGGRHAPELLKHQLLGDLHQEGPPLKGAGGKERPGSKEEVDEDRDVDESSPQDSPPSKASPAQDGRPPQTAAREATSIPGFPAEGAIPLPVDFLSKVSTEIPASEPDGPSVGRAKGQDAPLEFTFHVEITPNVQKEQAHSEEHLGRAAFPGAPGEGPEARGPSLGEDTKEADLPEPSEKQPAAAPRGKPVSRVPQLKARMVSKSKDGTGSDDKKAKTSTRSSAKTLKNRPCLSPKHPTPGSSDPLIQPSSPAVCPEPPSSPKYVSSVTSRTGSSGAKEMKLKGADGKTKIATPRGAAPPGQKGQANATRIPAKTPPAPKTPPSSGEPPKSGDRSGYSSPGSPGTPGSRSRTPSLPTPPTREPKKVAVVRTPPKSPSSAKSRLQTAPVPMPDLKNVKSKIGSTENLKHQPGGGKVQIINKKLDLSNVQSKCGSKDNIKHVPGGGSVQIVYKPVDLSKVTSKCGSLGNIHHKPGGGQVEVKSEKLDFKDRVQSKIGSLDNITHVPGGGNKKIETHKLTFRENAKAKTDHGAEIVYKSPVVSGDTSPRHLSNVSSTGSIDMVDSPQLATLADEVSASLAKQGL
SMILES,Potency,"activity, negative = inhibition"
COc1ccc2c(c1)c(N=O)c(O)n2C,"inconclusive: 12.6 µM [inhibitor, partial curve]",–
Cc1sc2ncnc(SCC(=O)NC(=O)c3cccn3C)c2c1C,"inconclusive: 10 µM [inhibitor, partial curve, poor fit]",–
Cc1ccc(C2/C(=C(/O)c3cnn(-c4ccccc4)c3C)C(=O)C(=O)N2CCCN2CCOCC2)o1 (stereo unspecified),"inconclusive: 28.2 µM [inhibitor, single point]",–
O=C(Nc1cccc(S(=O)(=O)N2CCCCCC2)c1)c1cc(=O)c2ccccc2o1,–,inactive: -9.45%
CCSC1=N/C(=C\c2ccc(C(=O)O)cc2)C(=O)S1,–,inactive: -9.62%
O=C1C2=C(S[C@@H]3O[C@H](CO)[C@@H](O)[C@H](O)[C@H]3O2)C(=O)c2ccccc21,"inconclusive: 17.8 µM [inhibitor, partial curve]",–
CC(=O)N1c2ccc(S(=O)(=O)NCC3CCC(C(=O)Nc4cccc(F)c4)CC3)cc2CC1C (stereo unspecified),–,inactive: 1.34%
O=C(Nc1ccc2c(c1)OCCO2)c1ccccn1,–,inactive: -17.1%
NS(=O)(=O)c1ccc(NC(=O)COC(=O)CCc2c[nH]c3ccccc23)cc1,"inconclusive: 7.08 µM [inhibitor, partial curve]",–
Cc1c(Nc2nc3ccccc3nc2N2CCN(c3ccccc3)CC2)c(=O)n(-c2ccccc2)n1C,"inconclusive: 12.6 µM [inhibitor, partial curve]",–
COc1ccc(N2CCN(C(=O)Nc3ccc(Cl)cc3)CC2)cc1,"inconclusive: 0.112 µM [inhibitor, full curve]",–
O=c1cc(C(F)(F)F)nc(-c2ccccc2)[nH]1,–,inactive: 1.42%
CC(=O)Nc1c(OC(C)=O)ccc2c(C)cc(=O)oc12,"inconclusive: 25.1 µM [inhibitor, single point]",–
CCc1cccc(-n2nnc(-c3nc(-c4ccc5c(c4)OCO5)no3)c2C)c1,"inconclusive: 0.708 µM [inhibitor, full curve]",–
Cc1cccc(C(=O)NCc2nnc(SCC(=O)Nc3ccccc3F)n2-c2ccccc2)c1,–,inactive: 2.85%
O=S1(=O)C=C(Sc2nc3cc(Cl)ccc3o2)c2ccccc21,"inconclusive: 39.8 µM [inhibitor, single point]",–
COCCNC(=O)[C@H](C)[C@H]1C[C@]1(C)[C@H](NC(=O)OCc1ccccc1)c1ccccc1,inactive,–
O=C(CCc1ccc(S(=O)(=O)NCCc2ccccc2)cc1)NCc1ccco1,–,inactive: -10%
CCOC(=O)c1c(CS(=O)(=O)c2ccccc2)n(C)c2cc(Br)c(O)c(CN(C)C)c12,–,inactive: 7.22%
CCOC(=O)CSC1=C(C#N)C(c2ccc(OC)cc2)C2=C(CC(C)(C)CC2=O)N1 (stereo unspecified),–,inactive: 8.53%
CCC(=O)NC(=S)Nc1cccc(NC(=O)c2ccccc2)c1,–,inactive: -5.71%
COc1ccc2c(c1O)Cc1ccccc1C2=O,"inconclusive: 5.62 µM [inhibitor, partial curve]",–
O=C1OC(Nc2ncccn2)c2ccccc21 (stereo unspecified),–,inactive: -8.92%

SMILES,Potency,"activity, negative = inhibition"
O=C(CN1CCN(Cc2ccccc2Cl)CC1)N=Nc1c(O)[nH]c2ccccc12,"inconclusive: 28.2 µM [inhibitor, single point]",–
FC(F)(F)c1cccc(OCCN2CCN(Cc3ccccc3)CC2)c1,–,inactive: -2.24%
COC(=O)c1[nH]c2ccc(C)cc2c1NC(=O)CN1CCN(c2ccc(F)cc2)CC1,"inconclusive: 15.8 µM [inhibitor, partial curve]",–
CC(=O)N1C(=O)/C(=C2\SC(=S)N(c3c(C)n(C)n(-c4ccccc4)c3=O)C2=O)c2ccccc21,"inconclusive: 22.4 µM [inhibitor, partial curve]",–
CCCC(=O)N1c2ccccc2C(=C2SC(C(=O)OC)=C(C(=O)OC)S2)C(=S)C1(C)C,active: 2.24 µM,–
CC(=O)Oc1cccc2c1C(=O)c1c(OC(C)=O)cc(C(=O)O)cc1C2=O,"inconclusive: 15.8 µM [inhibitor, partial curve] and inconclusive: 2.82 µM [inhibitor, partial curve]",–
COCCn1c(C)cc(O)c(C(c2ccc(OC)cc2)N2CCCCC2)c1=O (stereo unspecified),"inconclusive: 25.1 µM [inhibitor, partial curve]",–
CC1=C(C(=O)OCc2ccccc2)C(c2ccc(C3CCCCC3)cc2)NC(=O)N1CCCCCC(=O)O (stereo unspecified),–,inactive: -23.9%
CC(=O)Nc1ccc(S(=O)(=O)Nc2nc3ccccc3nc2Nc2ccc(O)cc2)cc1,"inconclusive: 31.6 µM [inhibitor, partial curve]",–
CC(C)c1ccc(N=C2NN=C(c3cccs3)CS2)cc1,"inconclusive: 12.6 µM [inhibitor, partial curve]",–
Cc1noc(C)c1CSc1nnc(-c2ccccc2)n1N,–,inactive: -16.9%
CCOc1ccc(NCc2cccn2-c2nnc(N3CCC(C(=O)NCCc4ccc(OCC)c(OCC)c4)CC3)s2)cc1,"inconclusive: 11.2 µM [inhibitor, partial curve]",–
Cc1cccc(C(=O)NC(=S)NNC(=O)COc2ccc(Cl)cc2)c1,"inconclusive: 25.1 µM [inhibitor, partial curve]",–
CC(=O)C1=C(c2cccc([N+](=O)[O-])c2)N(C(C)=O)n2c(C)nnc2S1,active: 3.55 µM,–
O=C(N/N=C/c1c(F)c(F)c(F)c(F)c1F)c1ccc(Cn2cc(Br)cn2)o1,–,inactive: 10.2%
Cc1ccc(NC(=S)N/N=C/c2c(Cl)cccc2Cl)c(C)c1,"inconclusive: 2.82 µM [inhibitor, full curve]",–
OCCNc1nc(Nc2ccc(Br)cc2)nc2ccccc12,–,inactive: -4.85%
COc1ccc(COC(=O)N/N=C2/C[C@@H](O)[C@@H](O)[C@@H]3[C@@H]4C(=O)N(C(C)(C)C)C(=O)[C@H]4CC[C@@H]23)cc1,–,inactive: -7.43% [at 11.5 µM]
COc1ccccc1-c1nnc2n1N=C(c1ccc(O)c(O)c1)CS2,–,inactive: -11.6%
CC(C)c1ccc2[nH]c(O)c(N=NC(=O)c3ccc(CSc4nncn4C)cc3)c2c1,"inconclusive: 7.08 µM [inhibitor, partial curve]",–
COc1cccc(CN2CCN(C(=O)c3cccs3)CC2)c1OC,–,inactive: -5.15%
Cc1cccc(C)c1OCc1n[nH]c(=S)n1N,–,inactive: -5.6%
O=C(Cc1ccccc1)NN1C(=O)c2ccccc2C1=O,–,inactive: 4.95%
